# Data from PubChem BioAssay AID588501 (NMMLSC, 2011).
# Out of some 360,000 compounds screened, about 420 (0.12%) were called active. Inconclusive means that the source gave no clear call. Such entries were picked first, then a sample of the others. Rule as the data show it: active = inhibition above about 30%; inconclusive = no clear call, values can overlap the other calls; inactive = below that.
# Biological target: Lethal factor (Bacillus anthracis) (UniProt P15917)
# Experiment: anthrax lethal factor cleavage blockers – biochemical, multiplex microsphere, MLPCN library, primary screen (AID 588501); also: plate controls were buffer without enzyme for full effect and enzyme alone for no effect
# Settings: multiplex microsphere protease cleavage assay, LF; at 10 µM; active compounds read high
# UniProt P15917, sequence (P15917 whole entry, looked up): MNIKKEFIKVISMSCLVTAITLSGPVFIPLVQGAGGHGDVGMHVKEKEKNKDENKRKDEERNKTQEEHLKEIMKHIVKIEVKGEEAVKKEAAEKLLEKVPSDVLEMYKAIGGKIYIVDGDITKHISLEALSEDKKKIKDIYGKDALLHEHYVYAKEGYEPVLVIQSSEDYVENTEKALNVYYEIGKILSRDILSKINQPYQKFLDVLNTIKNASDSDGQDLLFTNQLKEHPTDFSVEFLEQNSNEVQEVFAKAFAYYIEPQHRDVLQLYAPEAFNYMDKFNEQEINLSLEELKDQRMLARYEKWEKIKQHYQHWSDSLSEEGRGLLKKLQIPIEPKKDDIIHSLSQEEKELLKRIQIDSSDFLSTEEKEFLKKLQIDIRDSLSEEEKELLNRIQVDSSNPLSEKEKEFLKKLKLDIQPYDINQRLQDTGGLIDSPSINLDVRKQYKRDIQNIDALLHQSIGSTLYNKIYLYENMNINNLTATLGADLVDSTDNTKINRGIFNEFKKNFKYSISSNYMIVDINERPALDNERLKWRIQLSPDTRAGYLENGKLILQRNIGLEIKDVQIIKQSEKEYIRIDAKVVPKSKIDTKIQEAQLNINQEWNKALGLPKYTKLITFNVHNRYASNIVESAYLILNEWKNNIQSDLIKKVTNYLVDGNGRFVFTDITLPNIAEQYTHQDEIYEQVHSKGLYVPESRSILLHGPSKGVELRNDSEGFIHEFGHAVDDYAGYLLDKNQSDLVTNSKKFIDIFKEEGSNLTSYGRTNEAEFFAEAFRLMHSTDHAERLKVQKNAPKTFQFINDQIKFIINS
row,Compound,inhibition
1,COc1ccc(C2=Nn3c(nnc3-c3ccncc3)SC2)cc1,inconclusive: -13.5%
2,O=C1[C@@H]2CSCN2C(=O)CN1CCc1cccc(F)c1,inconclusive: -12.3%
3,COc1ccccc1N1CCN(C(=O)c2coc(=O)c(Br)c2)CC1,inconclusive: 16.8%
4,COc1ccc(OC)c(N/C(C)=C/C(=O)c2ccc(Br)cc2)c1,inactive: -4.7%
5,O=C(c1ccco1)N1CCN(C(=O)C(Cc2ccccc2)NS(=O)(=O)c2cccs2)CC1 (stereo not drawn),inconclusive: -21.1%
6,O=C(O)c1cc(NCc2cccs2)ccc1N1CCOCC1,inconclusive: -14.8%
7,CC(C)CN(C(=O)COC(=O)c1ccc(Cl)nc1)c1c(N)n(Cc2ccccc2)c(=O)[nH]c1=O,inconclusive: 8.5%
8,NC(=O)N/N=C(/CCCCCC/C(=N\NC(N)=O)c1ccccc1)c1ccccc1,inconclusive: 3.2%
9,CC(OC(=O)c1ccc(Cl)nc1)C(=O)NCc1ccc2c(c1)OCO2 (stereo not drawn),inconclusive: -2.9%
10,CCN1C(c2ccccc2)=C(c2ccccc2)S/C1=C\C=C1/SC(=S)N(C)C1=O,active: 44.2%
11,C=CCn1c(N2CCCC2)nc2c1c(=O)n(C)c(=O)n2C,active: 44.2%
12,Cc1ccccc1NS(=O)(=O)c1cc(C(=O)N2CCc3ccccc3C2)ccc1C,inactive: -3%
13,CCOc1cc(C)c(C(C)C)cc1S(=O)(=O)NCc1ccccn1,inactive: 0.2%
14,Cc1csc(=O)n1CC(=O)OCC(=O)NNC(=O)c1ccc([N+](=O)[O-])cc1,inconclusive: 14.1%
15,COc1cc2c(cc1OC)CN(S(=O)(=O)c1ccc3c(c1)OCCO3)CC2,inconclusive: -11.5%
16,Oc1cccc2ccc(Nc3ccccn3)nc12,active: 33.7%
17,COC1=C(Br)C(=O)c2ncccc2C1=O,inactive: -6.4%
18,CC(C)CC12CN3CCN(CC(C3)C1O)C2 (stereo not drawn),inconclusive: -12.8%
19,O=C(O)CCC(=O)Nc1ccc(OCC(=O)O)cc1,inconclusive: -12%
20,O=C(Cc1nc(-c2cnccn2)no1)NNC(=O)Nc1ccccc1,active: 35.3%
21,CCC(=O)Nc1cc(C(=O)OC(C(=O)c2ccc(C)c(C)c2)c2ccccc2)ccc1C (stereo not drawn),inconclusive: -29.9%
22,CC(C)CCN1C(=O)c2ccc(C(=O)Nc3ccccc3C(=O)O)cc2C1=O,inactive: -10%

row,Compound,inhibition
1,O=C(CN1CCOCC1)NCCc1ccccc1,active: 30.6%
2,COCCN(C(=O)COC(=O)c1ccco1)c1c(N)n(Cc2ccccc2)c(=O)[nH]c1=O,inconclusive: 0.2%
3,Cc1ccc(NC(=O)C(C)OC(=O)c2ccc(NC(=O)CC#N)cc2)cc1S(=O)(=O)N1CCOCC1 (stereo not drawn),inconclusive: 0%
4,CC(C)C[C@H](NC(=O)OC(C)(C)C)c1nnc(SCc2ccccc2)o1,inconclusive: -7.1%
5,O=S(=O)(Nc1cc(Cl)ccc1N1CCCCC1)c1cccs1,inconclusive: 2.6%
6,Cc1cc(C)n(-c2ccc(Cl)c(C(=O)O)c2)n1,inactive: 6.7%
7,CCCSc1nc(SCC(=O)NCc2ccccc2)c2c3c(sc2n1)COC(C)(CC)C3 (stereo not drawn),inconclusive: -8.4%
8,CC(C)[C@@H]1Cc2[nH][nH]c(=O)c2[C@H](C(C)C)O1,inactive: 1.1%
9,Cc1ccc2c(c1C)NC(C(=O)O)C1CC=CC21 (stereo not drawn),inconclusive: -9.9%
10,Cc1cc(CNC(=O)Nc2ccc3c(c2)OCO3)nn1C,inconclusive: -1.1%
11,CC(C)NCC(=O)Nc1c2c(nc3ccccc13)CCC2,inconclusive: -5.9%
12,CC1CC(C)CN(CCCNC(=O)CN2C(=O)c3cccnc3Oc3ccc(Cl)cc32)C1 (stereo not drawn),inactive: -3.6%
13,O=C1NC2(CCCC2)C(=O)N1CC(=O)N(Cc1ccccc1)c1ccccc1,inconclusive: 22.1%
14,N#CCC(=O)Nc1ccc(C(=O)OC(C(=O)Nc2cc(C(F)(F)F)ccc2Cl)c2ccccc2)cc1 (stereo not drawn),inconclusive: 3.1%
15,Cc1ccccc1NS(=O)(=O)c1cccc(-c2nnc(-c3ccccc3)o2)c1,inconclusive: -16.1%
16,CC1(c2ccccc2)NC(=O)N(CC(=O)N(CC(=O)Nc2ccccc2C(F)(F)F)Cc2ccco2)C1=O (stereo not drawn),inconclusive: -6.2%
17,Cc1cccc(C)c1NC(=O)CNC(=O)C12CC3CC(CC(O)(C3)C1)C2,inconclusive: -2.4%
18,C=C1N(C)c2cc([N+](=O)[O-])c(N)cc2C1(C)C,inconclusive: -39.7%
19,O=C(NCC1CCCO1)c1cnc(Cl)c(Cl)c1 (stereo not drawn),active: 32.1%
20,CCC(C)[C@H](N)c1nnc(SCC(=O)Nc2cccc(Cl)c2)o1 (stereo partly drawn),inconclusive: -37.6%
21,COc1ccc(N=Cc2c(O)n(-c3cccc(C)n3)c(=O)c3ccccc23)c(OC)c1,active: 62.9%
22,CCN(CC)CCOC(=O)c1ccc(NC(=O)COc2cc(=O)n(CC)c3ccccc23)cc1,inconclusive: -243%

row,Compound,inhibition
1,Nn1c(SCc2ccc(F)cc2)nnc1-c1ccncc1,inconclusive: -5.2%
2,O=C(CCOc1cccc(Br)c1)Nc1ccc(F)c(S(=O)(=O)N2CCOCC2)c1,inconclusive: -0.7%
3,O=C(NC1CC1)c1ccc(NS(=O)(=O)c2ccc(F)cc2)cc1,inconclusive: 6%
4,Cc1cc([N+](=O)[O-])cc(/C=N/n2c(C)nc3ccccc3c2=O)c1O,inactive: -5.5%
5,Oc1cccc(Nc2c3ccccc3nc3ccccc23)c1,inactive: -6.7%
6,COc1ccc(CCNC(=O)C(C(=O)c2ccc(F)cc2)n2ccccc2=O)cc1OC (stereo not drawn),inactive: 0.7%
7,Cc1cnc(=O)[nH]c1SCc1ccccc1F,inactive: 0.2%
8,CCN(C(=O)COC(=O)c1cnc(C)cn1)C1CCS(=O)(=O)C1 (stereo not drawn),inconclusive: 1.1%
9,O=[N+]([O-])c1cc(NS(=O)(=O)c2ccc(Cl)nc2)ccc1Cl,inconclusive: -41.1%
10,O=C1Cc2cc(NS(=O)(=O)c3ccc([N+](=O)[O-])cc3)cc3c2N1CCC3,inconclusive: -5.3%
11,COc1ccc(N2CCN(C(=O)CCNC(=O)Cn3ccc4ccccc4c3=O)CC2)cc1,inactive: -1.2%
12,COc1ccccc1OCC(=O)NCCS(=O)(=O)N1CCN(c2ccccc2)CC1,inconclusive: -6.2%
13,Cc1cc(C(=O)OCC(=O)Nc2ccccc2C#N)c(C)o1,inconclusive: -13.9%
14,COc1ccc(-c2cc(C(=O)N3CCN(c4cccc(C)c4C)CC3)c3ccccc3n2)cc1OC,inconclusive: -1.3%
15,COc1ccc(S(=O)(=O)N2CCN(Cc3ccc(OC)c(OC)c3)CC2)cc1,active: 42.5%
16,Cc1c(C(=O)Nc2ccccc2N2CCN(C)CC2)oc2ccc(F)cc12,inconclusive: 6.5%
17,CC(=O)OCC(OC(C)=O)C(OC(C)=O)C(OC(C)=O)C(=O)Nc1ccc(C)cc1 (stereo not drawn),inconclusive: 35%
18,C[C@@H]1CN([C@@H](C)CO)C(=O)Cc2cc(NS(=O)(=O)c3cn(C)cn3)ccc2O[C@@H]1CN(C)C(=O)Nc1ccccc1,inactive: -0.9%
19,O=C(CCN1C(=O)/C(=C\c2ccccc2)SC1=S)NNC(=O)c1ccncc1,inconclusive: -17.9%
20,COc1ccccc1C(=O)NC(=O)COC(=O)Cn1cnc2c1c(=O)n(C)c(=O)n2C,inconclusive: -7.9%
21,Cc1ccc(CN2CC(C(=O)O)CC2=O)cc1 (stereo not drawn),inconclusive: -24.7%
22,Cc1ccccc1OC(C)C(=O)Nc1ccc2c(c1)OCO2 (stereo not drawn),inactive: -2.2%

row,Compound,inhibition
1,Cc1ccc(NC(=O)CSc2nc3[nH]ncc3c(=O)[nH]2)cc1Cl,inconclusive: 1.3%
2,COc1cccc(C2=NN(C(=O)c3ccccc3)C(O)(C(F)(F)F)C2)c1 (stereo not drawn),inactive: 4.1%
3,CCCC(=O)NC(=S)Nc1ccc(S(=O)(=O)N2CCc3ccccc32)cc1,inactive: -24.7%
4,CN(CCc1ccccn1)C(=O)c1ccc(OC2CCN(Cc3ccccn3)CC2)cc1,inconclusive: -0.7%
5,CCOC(=O)C(C(=O)OCC)c1cc(Br)c2noc3c2c1C(=O)c1ccccc1-3,active: 58%
6,Cc1ccc(NC(=O)C(=O)NCCCN2CCCC2=O)cc1,inconclusive: 1.7%
7,CCOC(=O)c1ccc(NCn2c(=O)oc3ccccc32)cc1,inconclusive: -8.9%
8,Cc1ccc(C(=O)CSc2nnc(COc3cccc(C)c3)o2)cc1,inconclusive: -11%
9,Nc1nc(SCc2nnc(SCC(=O)O)n2-c2ccccc2)nc2sc3c(c12)CCCC3,inconclusive: 7.4%
10,Fc1cc(F)c(F)c(SCn2cc(Br)cn2)c1F,inconclusive: 2.5%
11,CN(C)C1(CNC(=O)c2cccc(S(=O)(=O)Nc3ccc(Br)cc3)c2)CCCCC1,inconclusive: 8.7%
12,Cn1c(SCC(=O)NNC(=O)Cc2ccccc2)nnc1-c1ccc(Cl)cc1,inconclusive: -15.3%
13,COc1ccc(Nc2cc(Nc3cccc(OC)c3)ncn2)cc1,inactive: -16.9%
14,O=C1/C(=C\c2ccc(-c3ccccc3Cl)o2)SC(=S)N1CC1CCCO1 (stereo not drawn),active: 59.1%
15,O=C(CCCNC(=O)c1ccc(Cl)cc1)Nc1cccc(S(=O)(=O)N2CCCCC2)c1,inconclusive: -5.5%
16,O=C(CCc1ccc(S(=O)(=O)N2CCOCC2)cc1)NCCCN1CCCC1=O,inconclusive: -15.4%
17,COc1ccc(NC(=O)c2ccc3ncsc3c2)c2ccccc12,inconclusive: -3.1%
18,Cc1cc(C)c(S(=O)(=O)Nc2ccc(-c3cn4ccccc4n3)cc2)c(C)c1,inactive: -0.8%
19,CN(C)c1nc(N2CCN(c3ccc(F)cc3)CC2)c(C#N)c(=O)o1,inconclusive: 10.4%
20,COc1ccccc1NC(=O)C1CCN(c2ncccn2)CC1,inactive: -3%
21,Nc1c(C(=O)NCc2cccnc2)sc(=S)n1-c1ccccc1,inconclusive: -0.4%
22,O=C(CCCCCN1C(=O)c2ccccc2C1=O)Oc1ccc2c3c(c(=O)oc2c1)CCC3,inactive: 4.2%
